Results published in the supplement of paper PMC4967469.
By IC50 is meant the dose at which the fit gives 50% viability; a limit (>, <) means that the fit lies beyond the doses tested. AUC, from the same fit, is the share of area under the viability curve across the 256-fold dose range; the more sensitive the line, the further below 1. For part of these data: An inferred top dose is not printed in the source and was worked back from the curve model.

Experiments:
Assay in all cases: Viability of human cancer cell lines after 72 h of drug (GDSC screen)
Phenformin = compound: N=C(N)NC(=N)NCCc1ccccc1 [Phenformin]; conditions: top dose 4000 µM; top dose inferred
Description: (§1)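 Human cancer cell lines in 384-well plates, medium with 10% serum, drug for 72 h over a 256-fold dose range (nine 2-fold or five 4-fold steps up to the top dose). Adherent lines were fixed and stained with the nucleic acid dye Syto60, suspension lines read with resazurin; signal relative to control wells, capped at 0 and 100%. One two-parameter sigmoid per drug and line, fitted in a mixed model over all curves with the slope shared within a line.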

WHI-P97 = compound: COc1cc2ncnc(Nc3cc(Br)c(O)c(Br)c3)c2cc1OC [WHI-P97]; conditions: top dose 10.24 µM; top dose inferred
Description: as §1

XL-184 = compound: COc1cc2nccc(Oc3ccc(NC(=O)C4(C(=O)Nc5ccc(F)cc5)CC4)cc3)c2cc1OC [XL-184]; conditions: top dose 5.12 µM; top dose inferred
Description: as §1

Gefitinib = compound: COc1cc2ncnc(Nc3ccc(F)c(Cl)c3)c2cc1OCCCN1CCOCC1 [Gefitinib]; conditions: top dose 0.5 µM
Description: as §1

QL-XI-92 = compound: C=CC(=O)Nc1cc(NC(=O)c2ccc(C)c(NC(=O)c3ccno3)c2)cc(C(F)(F)F)c1 [QL-XI-92]; conditions: top dose 10.24 µM; top dose inferred
Description: as §1

AG-014699 = compound: CNCc1ccc(-c2[nH]c3cc(F)cc4c3c2CCNC4=O)cc1 [AG-014699]; conditions: top dose 5 µM; top dose inferred
Description: as §1

Vinorelbine = compound: CCC1=C[C@@H]2CN(C1)Cc1c([nH]c3ccccc13)[C@@](C(=O)OC)(c1cc3c(cc1OC)N(C)[C@H]1[C@@](O)(C(=O)OC)[C@H](OC(C)=O)[C@]4(CC)C=CCN5CC[C@]31[C@@H]54)C2 [Vinorelbine]; conditions: top dose 0.064 µM; top dose inferred
Description: as §1

NU-7441 = compound: O=c1cc(N2CCOCC2)oc2c(-c3cccc4c3sc3ccccc34)cccc12 [NU-7441]; conditions: top dose 2 µM; top dose inferred
Description: as §1

EHT 1864 = compound: O=c1cc(CN2CCOCC2)occ1OCCCCCSc1ccnc2cc(C(F)(F)F)ccc12 [EHT 1864]; conditions: top dose 10 µM; top dose inferred
Description: as §1

| Cell Line | AUC (Phenformin) | IC50 (Phenformin) [µM] | AUC (WHI-P97) | IC50 (WHI-P97) [µM] | AUC (XL-184) | IC50 (XL-184) [µM] | AUC (Gefitinib) | IC50 (Gefitinib) [µM] | AUC (QL-XI-92) | IC50 (QL-XI-92) [µM] | AUC (AG-014699) | IC50 (AG-014699) [µM] | AUC (Vinorelbine) | IC50 (Vinorelbine) [µM] | AUC (NU-7441) | IC50 (NU-7441) [µM] | AUC (EHT 1864) | IC50 (EHT 1864) [µM] |
| --- | --- | --- | --- | --- | --- | --- | --- | --- | --- | --- | --- | --- | --- | --- | --- | --- | --- | --- |
| SJRH30 (rhabdomyosarcoma, adherent) | 0.833 | 2700 | 0.986 | > 10.2 | 0.986 | > 5.12 | 0.986 | > 0.5 | 0.831 | 6.77 | 0.921 | > 5 | 0.724 | 0.0177 | 0.969 | > 2 | 0.926 | > 10 |
| SK-HEP-1 (liver, adherent) | 0.94 | > 4000 | 0.977 | > 10.2 | 0.96 | > 5.12 | 0.966 | > 0.5 | 0.988 | > 10.2 | 0.983 | > 5 | 0.54 | 0.00509 | 0.989 | > 2 | 0.975 | > 10 |
| SK-MEL-3 (melanoma, adherent) | 0.77 | 1760 | 0.936 | > 10.2 | 0.932 | > 5.12 | 0.983 | > 0.5 | 0.96 | > 10.2 | 0.985 | > 5 | 0.717 | 0.0184 | 0.982 | > 2 | 0.861 | > 10 |
| SK-MEL-30 (melanoma, adherent) | 0.414 | 143 | 0.986 | > 10.2 | 0.939 | > 5.12 | 0.933 | > 0.5 | 0.934 | > 10.2 | 0.984 | > 5 | 0.635 | 0.00965 | 0.938 | > 2 | 0.964 | > 10 |
| SK-MES-1 (lung squamous cell carcinoma, adherent) | 0.88 | > 4000 | 0.892 | > 10.2 | 0.983 | > 5.12 | 0.944 | > 0.5 | 0.937 | > 10.2 | 0.936 | > 5 | 0.57 | 0.00634 | 0.958 | > 2 | 0.954 | > 10 |
| SKG-IIIa (cervix, adherent) | 0.28 | 47.3 | 0.977 | > 10.2 | 0.982 | > 5.12 | 0.963 | > 0.5 | 0.983 | > 10.2 | 0.981 | > 5 | 0.865 | > 0.064 | 0.956 | > 2 | 0.924 | > 10 |
| SKN (uterus, adherent) | 0.94 | > 4000 | 0.957 | > 10.2 | 0.98 | > 5.12 | 0.942 | > 0.5 | 0.911 | > 10.2 | 0.969 | > 5 | 0.755 | 0.026 | 0.863 | > 2 | 0.958 | > 10 |
| SKN-3 (head and neck, adherent) | 0.921 | > 4000 | 0.963 | > 10.2 | 0.973 | > 5.12 | 0.842 | 0.448 | 0.983 | > 10.2 | 0.941 | > 5 | 0.882 | > 0.064 | 0.901 | > 2 | 0.939 | > 10 |
| SNG-M (endometrium, adherent) | 0.983 | > 4000 | 0.882 | > 10.2 | 0.892 | > 5.12 | 0.984 | > 0.5 | 0.92 | > 10.2 | 0.983 | > 5 | 0.422 | 0.00246 | 0.967 | > 2 | 0.976 | > 10 |
| SNU-182 (liver, adherent) | 0.973 | > 4000 | 0.978 | > 10.2 | 0.956 | > 5.12 | 0.946 | > 0.5 | 0.986 | > 10.2 | 0.986 | > 5 | 0.643 | 0.0101 | 0.972 | > 2 | 0.981 | > 10 |
| SNU-387 (liver, adherent) | 0.837 | 3230 | 0.97 | > 10.2 | 0.758 | 2.01 | 0.984 | > 0.5 | 0.984 | > 10.2 | 0.984 | > 5 | 0.621 | 0.00905 | 0.948 | > 2 | 0.973 | > 10 |
| SNU-423 (liver, adherent) | 0.843 | 3570 | 0.965 | > 10.2 | 0.931 | > 5.12 | 0.983 | > 0.5 | 0.879 | > 10.2 | 0.983 | > 5 | 0.56 | 0.00602 | 0.962 | > 2 | 0.982 | > 10 |
| SNU-449 (liver, adherent) | 0.768 | 1630 | 0.916 | > 10.2 | 0.858 | 4.87 | 0.933 | > 0.5 | 0.961 | > 10.2 | 0.986 | > 5 | 0.916 | > 0.064 | 0.942 | > 2 | 0.939 | > 10 |
